{
  "source": "PubChem BioAssay AID485294",
  "about": "(National Center for Advancing Translational Sciences (NCATS), 2010)",
  "note": "About 150 (0.041%) of roughly 370,000 compounds were called active. This list was built around the results that the source calls inconclusive (neither active nor inactive); the mix of calls is not that of the screen. Calls follow the shape of the dose curve; as a rule, active = well fitted inhibition curve with a large enough effect; inconclusive = small, poorly fitted or top-dose-only effect; inactive = flat fitted curve, though single readings scatter. No potency is given beside an inconclusive call; the fits are too rough. Potency is read from the fitted curve at half-maximal effect; tags tell the direction and shape of the fitted curve.",
  "data": [
    {"target": "Beta-lactamase (Escherichia coli (strain K12)) (UniProt P00811)", "sequence (P00811 whole entry, looked up)": "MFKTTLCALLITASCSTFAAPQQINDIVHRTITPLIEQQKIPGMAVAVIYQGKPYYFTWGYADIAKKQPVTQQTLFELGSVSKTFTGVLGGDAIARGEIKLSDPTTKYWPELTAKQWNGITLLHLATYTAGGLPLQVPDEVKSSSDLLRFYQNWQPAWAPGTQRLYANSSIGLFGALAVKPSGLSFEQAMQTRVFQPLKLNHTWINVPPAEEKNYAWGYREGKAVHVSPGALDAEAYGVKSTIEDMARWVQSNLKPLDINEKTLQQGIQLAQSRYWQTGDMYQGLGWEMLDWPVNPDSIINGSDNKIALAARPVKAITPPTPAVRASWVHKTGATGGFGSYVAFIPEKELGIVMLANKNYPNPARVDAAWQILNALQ", "assay": "qHTS Inhibitors of AmpC Beta-Lactamase (assay with detergent); also: nearly all actives have a fitted effect of over 25% in size", "details": "AmpC hydrolysis of nitrocefin, absorbance 480 nm, 0.01% Triton; series mostly up to 114 µM", "outline": "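AmpC (5.3 nM in the dispensed reagent) in 20 mM phosphate pH 7.0 with 0.01% (detergent screen) or 0.0001% Triton X-100 was preincubated with compounds for 15 min at room temperature. Nitrocefin was then added from an 800 uM solution, and hydrolysis was followed at 480 nm.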", "values": [
      {"smiles": "NC(=O)CC(NC(=O)Cc1cccc2ccccc12)c1ccc(NCCN2CCCCC2)c([N+](=O)[O-])c1", "note": "(stereo unspecified)", "Potency": "inconclusive [inhibitor, full curve]"},
      {"smiles": "CN(CC(=O)Nc1ccc(F)cc1)C(=O)CSc1ncccn1", "Potency": "inconclusive [inhibitor, full curve, poor fit]"},
      {"smiles": "CCCCOc1ncnc2c1[nH]c1ccccc12", "Potency": "inconclusive [inhibitor, full curve, poor fit]"},
      {"smiles": "CN(C)c1ccc(N=Nc2ccc(S(N)(=O)=O)cc2)cc1", "Potency": "inconclusive [inhibitor, full curve, poor fit]"},
      {"smiles": "Oc1ccccc1Nc1nc2ccccc2n2nnnc12", "Potency": "inactive"},
      {"smiles": "Cc1ccc(C(=O)NCCCNc2ccc(C(F)(F)F)cc2[N+](=O)[O-])cc1", "Potency": "inconclusive [inhibitor, partial curve, poor fit]"},
      {"smiles": "COc1cccc(C(=O)NC(C)c2ccc(-c3ccccc3)cc2)c1OC", "note": "(stereo unspecified)", "Potency": "inconclusive [inhibitor, partial curve]"},
      {"smiles": "CCc1ccc(-c2nc(CS(=O)CC(=O)NCCc3ccccc3)c(C)o2)cc1", "note": "(stereo unspecified)", "Potency": "inactive"},
      {"smiles": "C=CCn1c(Cc2cccs2)nnc1SCC(=O)Nc1ccc(OC)c(OC)c1", "Potency": "inconclusive [inhibitor, full curve, poor fit]"},
      {"smiles": "O=C(CCc1nnc2ccc(NCc3ccc(F)cc3)nn12)N1CCC2(CC1)OCCO2", "Potency": "inconclusive [inhibitor, full curve, poor fit]"},
      {"smiles": "Cc1nc(SCc2ccc(C#N)cc2)n[nH]1", "Potency": "inconclusive [inhibitor, partial curve, poor fit]"},
      {"smiles": "O=C(Nc1cccnc1)c1cccc(NC(=O)c2ccco2)c1", "Potency": "inconclusive [inhibitor, full curve, poor fit]"},
      {"smiles": "Cc1c(NC(=O)C(C)Sc2nnc(-c3ccccc3)o2)c(=O)n(-c2ccccc2)n1C", "note": "(stereo unspecified)", "Potency": "inconclusive [inhibitor, partial curve, poor fit]"},
      {"smiles": "COc1cc(C(=O)Nc2cccc(-c3nc4cc(C)ccc4o3)c2)cc(OC)c1OC", "Potency": "inconclusive [inhibitor, full curve, poor fit]"},
      {"smiles": "O=C(COC(=O)CCNS(=O)(=O)c1ccc(Cl)cc1)Nc1ccccc1OC(F)F", "Potency": "inconclusive [inhibitor, full curve, poor fit]"},
      {"smiles": "CC(C)C[C@H]1CN=C(Nc2ccccc2)N1CCC(C)c1ccccc1", "note": "(stereo partly specified)", "Potency": "inconclusive [inhibitor, partial curve]"},
      {"smiles": "CCOc1ncccc1C(=O)OCC(=O)NCCc1ccccc1", "Potency": "inconclusive [inhibitor, full curve, poor fit]"},
      {"smiles": "CCCn1c2c(c(O)c(C(=O)Nc3ccccc3)c1=O)CCCC2", "Potency": "inactive"},
      {"smiles": "CCN(c1ccccc1)S(=O)(=O)c1ccc(OCc2c(C)noc2C)cc1", "Potency": "inconclusive [inhibitor, partial curve, poor fit]"},
      {"smiles": "COc1ccccc1NC(=O)CSc1ncnc2c1oc1ccccc12", "Potency": "inconclusive [inhibitor, full curve]"},
      {"smiles": "COc1cc(Cl)c(S(=O)(=O)NCCCn2ccnc2)cc1Cl", "Potency": "inconclusive [inhibitor, full curve, poor fit]"},
      {"smiles": "CN1CCN(CCCNC(=O)Cn2ncc3c4ccccc4n(C)c3c2=O)CC1", "Potency": "inactive"},
      {"smiles": "Cc1ccc(CSCc2ccc(C(=O)O)o2)cc1", "Potency": "inactive"},
      {"smiles": "COc1ccc(OC)c2sc(N3CCCCC3)nc12", "Potency": "inactive"},
      {"smiles": "COc1ccc(NC(=O)c2cccnc2Nc2ccc(OC)cc2)cc1", "Potency": "inconclusive [inhibitor, full curve, poor fit]"},
      {"smiles": "COc1ccccc1CN(Cc1cc2cc(C)ccc2[nH]c1=O)Cc1nnnn1CC1CCCO1", "note": "(stereo unspecified)", "Potency": "inconclusive [inhibitor, full curve]"},
      {"smiles": "COCC(=O)N/N=C\\c1ccc(OC/C=C/c2ccccc2)c(OC)c1", "Potency": "inactive"},
      {"smiles": "COC(=O)C1CCN(C(c2ccc(OC)c(OC)c2)c2sc3nc(C)nn3c2O)CC1", "note": "(stereo unspecified)", "Potency": "inconclusive [inhibitor, full curve, poor fit]"},
      {"smiles": "COC(=O)c1cccc(NC(=O)CN2C(=O)c3ccccc3C2=O)c1", "Potency": "inactive"},
      {"smiles": "COc1ccc(N2CCN(CCCNC(=O)C3CCCN(S(=O)(=O)c4cnc[nH]4)C3)CC2)cc1", "note": "(stereo unspecified)", "Potency": "inconclusive [inhibitor, full curve, poor fit]"},
      {"smiles": "Cc1onc(-c2ccccc2Cl)c1C(=O)N1CCN(c2ccccc2)CC1", "Potency": "inconclusive [inhibitor, full curve]"},
      {"smiles": "Cc1ccc(-n2c(=S)[nH]c3nc4c(cc3c2=O)COC(C)(C)C4)cc1", "Potency": "inconclusive [inhibitor, full curve, poor fit]"},
      {"smiles": "Cc1cccc(NC(=O)c2sc3nc4c(c(-c5ccco5)c3c2N)CCC4)c1", "Potency": "inconclusive [inhibitor, full curve, poor fit]"},
      {"smiles": "COc1ccc(OC)c(S(=O)(=O)n2c([N+](=O)[O-])cnc2C)c1", "Potency": "inconclusive [inhibitor, full curve, poor fit]"},
      {"smiles": "CCN1C(=O)/C(=C\\c2nc3ccccc3c(=O)n2CC)c2ccccc21", "Potency": "inconclusive [inhibitor, full curve, poor fit]"},
      {"smiles": "COC(=O)CCCC1=CC2=C(c3ccccc3)C(=O)C(C)(OC(=O)C3CCCC3)C(=O)C2=CN1C1CCCCC1", "note": "(stereo unspecified)", "Potency": "inactive"},
      {"smiles": "Cc1ccc(S(=O)(=O)Nc2cccc(C(=O)NCCCn3ccnc3)c2)cc1F", "Potency": "inconclusive [inhibitor, full curve, poor fit]"},
      {"smiles": "Cc1ccc(C(NC(=O)NC(C)c2ccccc2)C(Cl)(Cl)Cl)cc1F", "note": "(stereo unspecified)", "Potency": "inconclusive [inhibitor, full curve, poor fit]"},
      {"smiles": "CC1(C)CC(=O)C2=C(C1)NC1=C(C(=O)c3ccccc31)C2c1ccc(Cl)cc1", "note": "(stereo unspecified)", "Potency": "inconclusive [inhibitor, full curve, poor fit]"},
      {"smiles": "CCOC(=O)COc1ccc(F)cc1C(=O)c1ccn2nc(-c3ccc(Cl)cc3)cc2n1", "Potency": "inactive"},
      {"smiles": "CCOC(=O)c1noc2ncnc(Nc3cccc(OC)c3)c12", "Potency": "inactive"}
    ]}
  ]
}
